Measured values published in PubChem BioAssay AID686979 (National Center for Advancing Translational Sciences (NCATS), 2013).
Screen size: about 420,000 compounds; about 50,000 (12%) were called active. The shares of active, inactive and inconclusive entries below differ from those in the screen. Calls come from the whole dose curve; as a rule, active = well fitted inhibition curve with a large enough effect; inconclusive = small, poorly fitted or top-dose-only effect; inactive = flat fitted curve, though single readings scatter. No potency is given beside an inconclusive call; the fits are too rough.
% is set by controls: 0 for no effect and ±100 for the full control effect; potency is the fitted concentration of half-maximal effect; tags give direction and shape of the fitted curve.

Assay: qHTS for Inhibitors of human tyrosyl-DNA phosphodiesterase 1 (TDP1): qHTS in cells in presence of CPT; note: nearly all actives have a fitted effect of over 55% in size
Conditions: chicken DT40 Tdp1-/-;hTDP1 cells + 20 nM CPT, ATP luminescence, 48 h; activity change, negative = growth inhibition: at 46.2 µM (top of the series) unless noted
Method in brief: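 Cell growth measured by CellTiter-Glo luminescence after a minimum 48 h, 37 C compound exposure with 20 nM CPT in Tdp1-knockout DT40 cells stably expressing hTDP1, seeded 400/well; qHTS titration format.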
For Cc1cccc(OCc2nnc(SCC(=O)Nc3ccc(C)c(C)c3)o2)c1, the Potency was “inactive”.
For CC#CC(=O)N1CCCC(C(=O)c2ccc(SC)cc2)C1 (stereo not drawn), the Potency was inconclusive [inhibitor, single point].
For O=C(C1COc2ccccc2O1)N1CCN(c2nc3ccc([N+](=O)[O-])cc3s2)CC1 (stereo not drawn), the Potency was inconclusive [inhibitor, single point].
With Cc1nn(C)c2c1c(-c1ccccc1)cc(=O)n2CC(=O)NC(C)c1ccccc1 (stereo not drawn) the Potency was inconclusive [inhibitor, single point].
For Cc1ccc(/C=N/NC(=O)COc2ccccc2-c2ccccc2)cc1, the Potency was active: 0.164 µM.
In the case of Cc1ccccc1NC(=O)CSc1nc(N2CCCCC2)nc(N2CCCCC2)n1, the Potency is reported as inconclusive [inhibitor, single point].
In the case of COc1ccc(CNS(=O)(=O)c2cc3c4c(c2)C(C)C(=O)N4CCC3)cc1 (stereo not drawn), the Potency is reported as “inactive”.
With Cc1ccc(/C=N/NC(=O)C(=O)N/N=C/c2ccc(C)o2)o1 the Potency was “inactive”.
In the case of Cn1ncc(=S)[nH]c1=S, the Potency is reported as inconclusive [inhibitor, single point].
For CS(=O)(=O)N1CCc2cc(C(=O)N3CCCC3)ccc21, the Potency was inconclusive [inhibitor, partial curve, poor fit].
With COc1ccc2c(C)cc(Sc3nnnn3-c3ccccc3)nc2c1 the Potency was inconclusive [inhibitor, single point].
In the case of Brc1cc2c(cc1Cn1c(-c3cncs3)nc3ccccc31)OCO2, the Potency is reported as “inactive”.
For CCc1c(Nc2ccccc2Cl)nc(N)[nH]c1=O, the Potency was inconclusive [inhibitor, single point].
With O=C(Cn1c(=O)n(Cc2ccccc2)c(=O)c2sc3ccccc3c21)Nc1ccccc1 the Potency was inconclusive [inhibitor, single point].
In the case of COc1ccc(C(=O)c2c(C)c(CCC#N)n3ccccc23)c(OC)c1, the Potency is reported as inconclusive [inhibitor, single point].
For CCOc1ccc(-c2cc3nc(C4CCN(C(=O)OC(C)(C)C)CC4)c(C(=O)Nc4cc(OC)ccc4OC)cn3n2)cc1, the Potency was inconclusive [inhibitor, single point].
In the case of CCN1CCOC(=O)C1CC(=O)Nc1ccc(Br)cc1 (stereo not drawn), the Potency is reported as active: 23.1 µM.
With Cc1ccc(Cl)cc1NC(=O)c1sc(-n2nc(C)c(Cc3ccc4c(c3)OCO4)c2C)nc1C the Potency was inconclusive [inhibitor, full curve].
For CC(C)c1ccc(C(=O)NNC(=O)C2CC=CCC2C(=O)O)cc1 (stereo not drawn), the Potency was inconclusive [inhibitor, single point].
With CC1C(=O)N(Cc2cn(Cc3ccco3)nn2)CCS(=O)(=O)N1Cc1ccc(-c2ccccc2C(F)(F)F)cc1 (stereo not drawn) the Potency was inconclusive [inhibitor, single point].
With CCOc1ccc(C(=O)/C=C/c2cn(CN3CCN(C)CC3)c3ccccc23)cc1 the Potency was “inactive”.
For O=S(=O)(Nc1ccc(O)c2ccccc12)c1ccc(OC(F)(F)F)cc1, the Potency was active: 13 µM.
For COC(=O)c1cccc(OCCCN2CCC(C(O)(c3ccccc3)c3ccccc3)CC2)c1, the Potency was inconclusive [inhibitor, single point].
In the case of CC(C)[C@@H]1CN=C(N)N1C[C@@H]1CCCN1C[C@H](C)N1C[C@@H](Cc2ccccc2)N(CCc2ccc(Cl)c(Cl)c2)C1=N, the Potency is reported as inconclusive [inhibitor, single point].
With Nc1nc2ccccc2cc1C(=O)NCc1cccs1 the Potency was active: 9.2 µM.
With CCCOc1ccc(C2c3c(-c4c(C)cc(C)cc4O)n[nH]c3C(=O)N2CCO)cc1 (stereo not drawn) the Potency was active: 20.6 µM.
For CC1(C)CC(=O)C2=C(C1)N(c1ccccc1)C(N)=C(C#N)C2c1ccccc1 (stereo not drawn), the Potency was “inactive”.
For O=C(NCc1ccco1)c1ccc(N2CCCCC2)c([N+](=O)[O-])c1, the Potency was “inactive”.
With Cc1c(NC(=O)CN2C(=O)C3C4C=CC(C4)C3C2=O)c(=O)n(-c2ccccc2)n1C (stereo not drawn) the Potency was inconclusive [inhibitor, single point].
For COc1ccc(Oc2c(OC)cc(NCc3ccc(CN)cc3)c3ncccc23)cc1, the Potency was inconclusive [inhibitor, single point].
With CCCCCn1c(CN2CCN(c3ccc(OC)cc3)CC2)nc2c1c(=O)[nH]c(=O)n2C the Potency was inconclusive [inhibitor, partial curve].
With Cc1ccc(-n2nc(C(=O)c3ccccc3)n3c(=O)c(Cc4ccccc4)nnc23)cc1 the Potency was inconclusive [inhibitor, partial curve].
With COc1cc(NC(=O)CSc2ccc(-c3cccnc3)nn2)cc(OC)c1 the Potency was inconclusive [inhibitor, single point].
In the case of COc1cc(NC(=O)c2ccccc2Cl)c(OC)cc1NC(=O)CN1CCOCC1, the Potency is reported as inconclusive [inhibitor, single point].
With CN(NC1CC(=O)N(c2ccccc2)C1=O)c1ccccc1 (stereo not drawn) the Potency was inconclusive [inhibitor, single point].
With CC1=CC(C)(C)NC(=S)N1c1cc(C)cc(C)c1 the Potency was inconclusive [inhibitor, single point].
For CC1CCCCC1NC(=O)C1CCN(S(=O)(=O)N2CCCCCC2)CC1 (stereo not drawn), the Potency was inconclusive [inhibitor, single point].
With COc1ccc(-n2c(-c3ccco3)nc3c(cnn3-c3ccccc3Cl)c2=O)cc1 the Potency was inconclusive [inhibitor, single point].
With O=C(CCNC(=O)c1ccccc1Cl)Nc1nc(-c2ccccc2Cl)cs1 the Potency was inconclusive [inhibitor, single point].
For Cc1ccc(Cl)cc1NC(=O)Nc1cccc(OCc2cc(=O)n3ccccc3n2)c1, the Potency was “inactive”.
With CC(C)C[C@@H](CN1CCC[C@H]1CN1C(=O)C(=O)NC[C@@H]1Cc1ccc(O)cc1)N1C[C@H](Cc2ccc(O)cc2)N(CC2CCCCC2)C(=O)C1=O the Potency was “inactive”.
With Cc1cc(=O)n(Cc2ccccc2)c2c1c(C)nn2C the Potency was inconclusive [inhibitor, single point].
With Cc1ccccc1-n1c(SC/C(O)=C(\C#N)c2nc3ccccc3[nH]2)nnc1-c1ccncc1 the Potency was inconclusive [inhibitor, single point].
For O=C(CC1CCCC1)NCCS(=O)(=O)N1CCN(c2ccccc2F)CC1, the activity change, negative = growth inhibition was inconclusive: -32.2% [inhibitor].
With CCCCOc1ccc(OCCNC(=O)c2ccco2)cc1 the Potency was inconclusive [inhibitor, partial curve].
In the case of O=C(c1ccc(CS(=O)Cc2cccc(Cl)c2)o1)N1CCN(c2ccc(F)cc2)CC1 (stereo not drawn), the Potency is reported as inconclusive [inhibitor, single point].
With COc1ccc(-n2nc(C(=O)NCCCN3CCOCC3)c3ccccc3c2=O)c(OC)c1 the Potency was inconclusive [inhibitor, single point].
In the case of CC1CCN(C(=O)c2cc3ccccc3c(=O)o2)CC1, the Potency is reported as inconclusive [inhibitor, single point].
With O=C(CN1CCc2ccccc2C1)Nc1ccccc1N1CCCCCC1 the Potency was inconclusive [inhibitor, single point].
For C/C(=N/Nc1ccc(Cl)cc1)c1cnnc(-c2ccccc2)n1, the Potency was inconclusive [inhibitor, partial curve].
With CN(Cc1cc(-c2ccccc2)on1)C(=O)c1cc(COc2c(F)cccc2F)on1 the Potency was active: 10.3 µM.
For O=C(/C=C/c1c[nH]c2ccccc12)c1ccccc1, the Potency was active: 20.6 µM.
For COc1cc2ccccc2cc1C(=O)Nc1nccs1, the Potency was active: 14.6 µM.
For CCCCCCCCN1[C@@H](CC(C)=O)c2ccc(/C=C/C(C)=O)cc2S1(=O)=O, the Potency was active: 3.98 µM.
With Cc1cc(NC(=O)CCC(=O)N(Cc2ccco2)C2(C(=O)NC3CCCC3)CCCCC2C)no1 (stereo not drawn) the Potency was inconclusive [inhibitor, single point].
In the case of Cc1ccc(Nc2nnc(-c3ccc(C)c(S(=O)(=O)N4CCOCC4)c3)c3ccccc23)cc1, the Potency is reported as active: 16.4 µM.
In the case of COc1ccc(C(C(=O)NCc2ccccc2)n2c(-c3ccccn3)nc3ccccc32)cc1 (stereo not drawn), the Potency is reported as active: 16.4 µM.
For CCN1C(=O)[C@H]2[C@H]3CN=C(SCc4ccc(C(=O)OC)cc4)N3[C@@](C)(C(=O)OC)[C@H]2C1=O, the Potency was inconclusive [inhibitor, single point].
With COc1ccc(NS(=O)(=O)c2ccc(N3CCCC3=O)cc2)cn1 the Potency was active: 4.61 µM.
In the case of COCCNC(=O)c1ccc2nc(Cc3ccccc3)oc2c1, the Potency is reported as “inactive”.
In the case of O=S(=O)(Nc1ccon1)c1ccc(Br)cc1, the Potency is reported as “inactive”.
With O=C(NCC1CCCCC1)c1[nH]c(C(F)(F)F)nc1-c1ccccc1 the Potency was “inactive”.
With Clc1ccc(/C=N/Nc2nnc(Cl)c3ccccc23)cc1 the Potency was inconclusive [inhibitor, partial curve].
For O=C1c2ccccc2-c2c1c1ccccc1c(=O)n2-c1ccccc1, the Potency was active: 11.6 µM.
With Cc1ccc(C)c(S(=O)(=O)N2CCCCC2CCNC(=O)C(=O)NCc2ccccc2)c1 (stereo not drawn) the Potency was active: 23.1 µM.
With COc1cccc2c1C(=O)c1c(O)c3c(c(O)c1C2=O)CC(O)(C(C)=NNC(=O)c1ccc(Cl)c(Cl)c1)CC3OC1CC(N)C(O)C(C)O1 (stereo not drawn) the Potency was active: 0.164 µM.
For O=C(CN1CCCC1)Nc1ccc(NC(=O)Nc2ccccc2Cl)cc1, the Potency was “inactive”.
For CC1Nc2ncnc(N3CCN(c4ccccc4)CC3)c2N(Cc2ccccc2)C1=O (stereo not drawn), the Potency was inconclusive [inhibitor, single point].
